# Assay results published in the supplement of paper PMC11417369.
# Some of the results follow.
# Test system: PfHDP1 homeodomain (GST-tagged)
# Test: gcPBM binding intensity (ln(normalized median fluorescence intensity)); higher = stronger DNA binding
# In short: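 An Agilent 4 × 180k array of primer-extended double-stranded 36-bp intergenic genomic probes, with negative controls, was incubated for 1 h with GST-tagged P. falciparum DNA-binding domains expressed in E. coli. Alexa488 anti-GST antibody detected bound protein, scanned at 488 nm. Binding intensity is the highest Masliner-normalised natural-log median intensity across replicate spots of either probe orientation.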
row,Sequence,gcPBM binding intensity (ln)
1,TGTGGTTTTTATAATTGTACATATATATAAATCTAT [XGTACX_site4766],6.44
2,TATAATAAATCAAATGCACACACACTAATAAAAAAA [CACACA_site7937],9.89
3,GGAATATAAATACATACACACATATATATATATATA [CACACA_site4998],9.34
4,ATGAATATTTACAATCTTATTATGTTCAAAATTAAT [CACACA_negctrl_site592],6.16
5,TACATGCTTATTTTAACACACAAATGGTAGTAATAA [CACACA_site766],6.25
6,AATAAAAATAACCTAACATGCAAAAAAAAAAAAAAA [TGCATGCA_site718],6.37
7,TGAATGCTTTTATGCACACGTACAAAAATATTATAT [CACACA_site2668],10.4
8,GTCATTAAAAAAATATGTACTTAAATGTATGCATAT [XGTACX_site5951],6.44
9,CAAAATGATATGACAACACACAACCTATAGTAAGAC [CACACA_site1287],6.91
10,TAATATATAATAAAGTGTACATATGCTTTATTATTA [XGTACX_site1920],6.81
11,TGACGACATTTCTTATGTACTAATTTTTCTTCCTTT [XGTACX_site4391],6.09
12,TAAAAAAAGAAAAAAAGTACATGCTACTTTTATGAT [XGTACX_site7818],6.34
13,AGTAAATAACACAAATATGAATGAAAAAAAAAATAT [GTGCAC_negctrl_site235],6.82
14,CGTATGAGTAAATACACACCCACGTATATATATAAA [CACACA_site5728],6.53
15,ATATATATATAGTACGCACACATAGTTGTACATTAA [CACACA_site2787],8.91
16,CAACTTATTAAAAGTCGTACAAATGGGAAGAAGGAA [XGTACX_site6325],6.41
17,TGTGCGGAAATAAGTGCACACATAGATATCTGTATT [CACACA_site5935],9.71
18,ATAATTATTAATATAGTGCATTGGCATAATAATATA [GTGCAC_site9810],8.03
19,TTATACAACAAGAAAATTATAAAATGTAACATATAT [GTGCAC_negctrl_site406],6.51

row,Sequence,gcPBM binding intensity (ln)
1,ATATTAATATAATGTGCATGTTCAATGATCTTTTTA [TGCATGCA_site22],8.51
2,TTAGATATAATATATACACACCAACGAACGAAGAAA [CACACA_site4763],7.23
3,TACAAATATATATGCACACACATATATGTATATGTG [CACACA_site3075],10.4
4,TATTTTTTAACACAACGTACATATAAAAAATATTTA [XGTACX_site6025],6.42
5,AAATCCTTATTTTTTTGTACGTAATATTTTATATGG [XGTACX_site1530],6.74
6,ATGAATGTCCCAAGATGTACAATTATATATAACACA [XGTACX_site4702],6.55
7,TTTTAAGATATAAATTAATACTTATATATATAGATA [CACACA_negctrl_site22],5.97
8,TAATAAATAAGACACACACACATATATATATATTAT [CACACA_site1389],6.95
9,GAGTAAAAATTAAAATGTACATATTATATATATTTA [XGTACX_site1319],6.22
10,AAAAATTTTATATTCACACACATATTTATATTTATA [CACACA_site6439],6.49
11,CCTTTCACATATAATACATGCATTATTATATATGAA [TGCATGCA_site287],6.91
12,AGAATAATATAATAAAGTACAAACCTATCTAACTAC [XGTACX_site5477],6.69
13,ATTATAAATAAATATTGTACTTATATGATCTATTTG [XGTACX_site3820],6.25
14,GGATATATTATATGTACACACACATATAAGGGATTA [CACACA_site7884],6.53
15,ATTGCATTTGTAGATAATACAATATGGATTGTTATA [CACACA_negctrl_site1749],6.02
16,AAAAAAATTTATTAAAGTACTAGATAATCATATAAA [XGTACX_site1455],6.41
17,TTCTTTTCTCTTTTAATCATATTATATAAATGAATA [CACACA_negctrl_site820],6.71
18,ATATATAAAAAAGCTAGTACACAAAAATATATAATG [XGTACX_site3001],6.94
19,GTAAATATATATATATATATATATATATATATATAT [GTGCAC_negctrl_site239],9.41

row,Sequence,gcPBM binding intensity (ln)
1,CATTTTATTTTCTTTGTGCACAAAAATATTTTTTCT,10.8
2,TTGTAACAAAAGTACACACACATTTCTATAAATTTT [CACACA_site2772],6.45
3,TTTATATACTATCAACGTACAAAAGTAATAAAAATA [XGTACX_site4343],6.59
4,GGATTTTACCATAGCACACATATATGAATATTTTTC [CACACA_site1814],6.65
5,TGTTCTAATTTTAATTGTACATATATACATATATAT [XGTACX_site7290],6.37
6,AAAGTTATGATATATACACACATATAAATATTAAAT [CACACA_site6361],6.57
7,GAAATAATAAAATCGACACACAAAAAAAAAAAAAAA [CACACA_site3476],6.39
8,CTATTTAAAATTTGAACACACATTATTTATTTTAAA [CACACA_site3114],6.41
9,CTTTATATATATTGCGTGCACATTTTTTTTTTTTTT,9.4
10,TCAATATATATAAGAAGTACATGTGAATGAAAAAAA [XGTACX_site1674],7.29
11,AATAAATACAAAAATGTACACACATATATATATTTT [CACACA_site9167],6.71
12,AACATATAAAAATATGCACACACAGGAATACAAACA [CACACA_site8127],9.18
13,TTCTGTATACGGTGTGCACACAATTAAAAAAAAAAA [CACACA_site1416],10.8
14,TTAAATAACCTCAAGGATAAGAAAAAATTAAAAATT [CACACA_negctrl_site1336],6.17
15,TTTTAAAAAATATAATAATATAAATATTTTATACGT [TGCATGCA_negctrl_site252],6.03
16,AAAAAAAAAAAACATACACACACACTAATATTTATA [CACACA_site8038],6.77
17,GACTTTTTCATTTTTAGTACACATATATATTTCCCT [XGTACX_site3511],7.56
18,ATATATTTTTAATATGCACACAAGAATACATTCACA [CACACA_site914],9.51
